Source: paper PMC4336329 (PLoS ONE, 2015)
Screen size: about 310,000 compounds; about 2,200 (0.71%) showed an effect of 50% or more. Effects have a minus sign here. The list shows a part of the results.

Molecular target: human ether-à-go-go-related gene (hERG) potassium channel (human, UniProt Q12809)
Assay: primary screen, population patch clamp on CHO cells stably expressing hERG

Chain of human ether-à-go-go-related gene (hERG) potassium channel (Q12809 whole entry, looked up): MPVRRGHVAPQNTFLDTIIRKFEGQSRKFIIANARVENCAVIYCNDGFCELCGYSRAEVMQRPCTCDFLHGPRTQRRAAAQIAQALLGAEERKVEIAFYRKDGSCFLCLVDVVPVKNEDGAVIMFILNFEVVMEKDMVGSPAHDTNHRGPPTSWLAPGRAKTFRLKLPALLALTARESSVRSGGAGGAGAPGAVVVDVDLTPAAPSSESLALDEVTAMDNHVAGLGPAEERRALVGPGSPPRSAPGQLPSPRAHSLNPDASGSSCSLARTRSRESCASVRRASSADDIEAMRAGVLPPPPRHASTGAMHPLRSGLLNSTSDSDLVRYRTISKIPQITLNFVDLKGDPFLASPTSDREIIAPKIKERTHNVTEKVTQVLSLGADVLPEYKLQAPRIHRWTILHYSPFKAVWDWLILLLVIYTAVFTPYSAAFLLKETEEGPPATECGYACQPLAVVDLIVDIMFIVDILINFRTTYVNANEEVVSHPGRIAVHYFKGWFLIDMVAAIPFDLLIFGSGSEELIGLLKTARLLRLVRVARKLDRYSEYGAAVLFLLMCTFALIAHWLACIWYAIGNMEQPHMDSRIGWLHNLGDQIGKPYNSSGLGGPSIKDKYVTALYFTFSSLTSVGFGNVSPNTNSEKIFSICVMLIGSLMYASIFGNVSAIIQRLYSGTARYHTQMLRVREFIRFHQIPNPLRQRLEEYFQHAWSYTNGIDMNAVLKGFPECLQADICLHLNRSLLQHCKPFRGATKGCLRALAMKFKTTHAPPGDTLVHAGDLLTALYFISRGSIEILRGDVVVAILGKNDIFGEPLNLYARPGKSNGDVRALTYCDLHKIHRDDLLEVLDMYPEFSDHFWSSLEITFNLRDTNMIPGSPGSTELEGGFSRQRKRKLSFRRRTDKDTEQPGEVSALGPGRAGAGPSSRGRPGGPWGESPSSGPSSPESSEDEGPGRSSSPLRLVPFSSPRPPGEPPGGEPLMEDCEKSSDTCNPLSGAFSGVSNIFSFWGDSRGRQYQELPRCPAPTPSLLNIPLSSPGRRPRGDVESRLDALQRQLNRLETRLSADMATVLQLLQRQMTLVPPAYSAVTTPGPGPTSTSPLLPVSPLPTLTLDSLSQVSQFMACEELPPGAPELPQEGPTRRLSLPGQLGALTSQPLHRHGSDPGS

| SMILES | hERG current change (%, negative = inhibition) at 1uM [%] |
| --- | --- |
| Nn1c(CSc2ccccn2)nc2ccccc2c1=O | 7.56 |
| COc1ccccc1-c1nnc(SCC(=O)N2CCCCC2)o1 | 10.7 |
| O=C(NCCc1cccnc1)C1CCC(=O)N(Cc2cccc(C(F)(F)F)c2)C1 (stereo not drawn) | -2.13 |
| COc1cc(C(=O)NCC(=O)N/N=C/c2cccc(OC(=O)c3ccco3)c2)cc(OC)c1OC | 1.44 |
| O=C(O)c1ccc(NS(=O)(=O)c2ccc(N3C(=O)CCC3=O)cc2)cc1 | 8.55 |
| CCOc1nc(NC(C)C)nc(NC(C)C)n1 | 4.56 |
| CC(C)CC1c2[nH]c3ccccc3c2CCN1C(=O)C1CCOCC1 (stereo not drawn) | 9.82 |
| CCn1c(SC(C)C(=O)Nc2ccc(N3CCOCC3)cc2)nnc1C1CC1 (stereo not drawn) | 6.87 |
| CCS(=O)(=O)n1nc(-c2ccco2)nc1SC | 7.34 |
| O=C(COc1ccc(Br)cc1)Nc1ccncc1 | 6.95 |
| O=S(=O)(c1ccccc1)c1nc(-c2ccco2)oc1NCc1ccco1 | 8.3 |
| CCn1nnc(NC(=O)Cc2ccc(Cl)cc2)n1 | 6.04 |
| CCCCn1c(SCC(=O)Nc2nnc(C)s2)nnc1-c1ccncc1 | 14.6 |
| C=CCn1c(-c2cccc3ccccc23)n[nH]c1=S | -5.02 |
| COC(=O)c1cn(C(=O)c2ccc(OC)c(OC)c2)c2ccccc12 | 7.78 |
| N/C(=N\OS(=O)(=O)c1ccc(Cl)cc1)c1cccnc1 | 8.36 |
| COc1cccc(N2CC(NC(=O)C(=O)c3c(C)[nH]c4ccccc34)CC2=O)c1 (stereo not drawn) | 16.3 |
| COc1ccc(N2CCN(C(=O)COCc3cc(-c4ccc5c(c4)OCO5)on3)CC2)cc1 | 7.52 |
| COc1cc(/C=N/Nc2ncc(C(F)(F)F)cc2Cl)cc(OC)c1O | -32.8 |
| Cc1ccc(NC(=O)CSc2n[nH]c(N)n2)cc1S(=O)(=O)N1CCOCC1 | 3.69 |
| O=C(O)CCC(=O)N1CCC(C(=O)c2cccc(Cl)c2)CC1 | 21.7 |
| COc1ccccc1C(=O)N=C1NC(=O)CC2C(=O)NCCN12 (stereo not drawn) | -1.15 |

| SMILES | hERG current change (%, negative = inhibition) at 1uM [%] |
| --- | --- |
| COc1ccc(NC(=O)Cc2ccsc2)cc1S(=O)(=O)N1CCCCC1 | -0.987 |
| CS(=O)(=O)c1ccc(-c2csc(-c3cccnc3)n2)cc1 | 10.4 |
| Cc1cccc(C)c1OCC(=O)Nc1ccccc1N1CCCCC1 | 6.66 |
| O=c1[nH]cc(S(=O)(=O)N2CCCc3ccccc32)c(=O)[nH]1 | 1.85 |
| CCCn1c(SCC(=O)Nc2cc(Cl)ccc2Cl)n[nH]c1=O | 0.489 |
| COc1ccccc1-c1cc(C(F)(F)F)nc(S(=O)(=O)CCCC(=O)NCc2ccc(F)cc2)n1 | -24.1 |
| CCCCn1c(N)c(N(CC(C)C)C(=O)C2CC(=O)N(c3ccccc3C(C)CC)C2)c(=O)[nH]c1=O (stereo not drawn) | 7.75 |
| O=C(NCc1ccc2c(c1)OCO2)c1ccc(CS(=O)(=O)c2ccc(Br)cc2)o1 | 0.797 |
| C=CCN1CC(c2nc3ccccc3n2Cc2cccc3ccccc23)CC1=O (stereo not drawn) | 2.48 |
| Cc1ccccc1OCC(=O)Nc1ccc(N2CCOCC2)cc1N1CCOCC1 | 4.91 |
| CCOC(=O)c1ccc(S(=O)(=O)N2CCN(CC(=O)NC(=O)NC3CCCCC3)CC2)cc1 | 3.86 |
| Nc1nc(SCc2nc(-c3ccccc3)no2)[nH]c(=O)c1-c1ccccc1 | -12.1 |
| Cc1cc(C)n2nc(S(=O)(=O)N(CC(C)C)CC(C)C)nc2n1 | 8.03 |
| CN(C)C1=NC[C@H](Cc2ccccc2)N1CCC1CCCC1 | -19.7 |
| Cc1c(NC(=O)Cn2nc(C(F)(F)F)c3c2CCCC3)c(=O)n(-c2ccccc2)n1C | 9.76 |
| COc1ccc2oc(C(=O)OCC(=O)N(C)C3CCCCC3)c(C)c2c1 | 14.5 |
| Cc1ccc(NC(=O)COc2ccc(N(C)S(=O)(=O)c3ccc(F)cc3)cc2)cc1 | 7.43 |
| Cc1oc2c(C)c3oc(=O)c(CCC(=O)NCCCN4CCCC4=O)c(C)c3cc2c1C | -8.83 |
| COc1ccccc1NC(=O)c1ccc(-c2nn(C)c(=O)c3ccccc23)cc1 | -9.68 |
| CCOC(=O)c1ccc(S(=O)(=O)Nc2nc3cc(S(=O)(=O)NC4=NCCCCC4)ccc3s2)cc1 | 9.26 |
| CC1(O)C(=O)C=C2C=C(C3CC3)OC=C2C1=O (stereo not drawn) | 19.2 |
| COC(=O)c1cc(C#N)c(NCc2ccc(Cl)cc2Cl)nc1C | -9.23 |

| SMILES | hERG current change (%, negative = inhibition) at 1uM [%] |
| --- | --- |
| CC(=O)c1ccccc1NCC(=O)Nc1ccc(C)cc1 | 13.7 |
| O=C(Nc1ccc2c(c1)OCCO2)N1CCOCC1 | 11.4 |
| CCOc1ccc(/C=N/NC(=O)c2ccoc2C)cc1OC | 15.5 |
| CC1CC(C)CN(c2nc3c(c(=O)n(C)c(=O)n3C)n2C)C1 (stereo not drawn) | 11.1 |
| Cc1ccccc1NC(=O)c1cccc(Cn2cc(Br)c([N+](=O)[O-])n2)c1 | 1.01 |
| O=C(O)C(F)(F)F.O=C1C(Cc2ccccc2)Nc2ncnc(N3CCN(c4ccccc4)CC3)c2N1Cc1ccc(Cl)cc1 (stereo not drawn) | 7.08 |
| COc1ccc(CCNC(=O)C23CCC(C)(C(=O)C2=O)C3(C)C)cc1OC (stereo not drawn) | 1.99 |
| O=C(OCN1C(=O)c2ccccc2C1=O)C1CCCCC1 | -0.118 |
| O=C(Cn1c(SCC(=O)N2CCc3ccccc32)nc2ccccc21)NC1CCCC1 | 21.1 |
| CCOc1cc(CNCCSc2nnnn2C)cc(Br)c1OCc1ccccc1.Cl | -5.73 |
| Cc1ccc(NC(=O)CCC(=O)NNC(=O)c2cccc([N+](=O)[O-])c2)cc1C | -3.08 |
| CCOc1cc(/C=C2\SC(=S)N(NS(=O)(=O)c3ccccc3)C2=O)ccc1O | 22.1 |
| COc1cccc(-c2c(C(=O)N/N=C/c3ccc(C)o3)nnn2-c2nonc2N)c1 | -1.7 |
| O=C(O)c1cc(N2C(=O)CCC2=O)ccc1NCc1cccnc1 | 17.1 |
| Cc1[nH]n(-c2ccccc2)c(=O)c1C1(C(F)(F)F)C(=O)N(c2ccc(F)cc2)C2=C1C(=O)CC(C)(C)C2 (stereo not drawn) | 5.76 |
| CN(C)c1ccc(P(=S)(N(C)C)N(C)C)cc1 | 10.7 |
| N[C@@H](CCC(=O)N[C@@H](CSN=O)C(=O)NCC(=O)O)C(=O)O | 0.457 |
| COc1ccccc1NC(=O)N1CCCC1C(=O)Nc1ccc2c(c1)OCCO2 (stereo not drawn) | 5.44 |
| Cc1cnc(C(=O)OCC(=O)c2cc(C)n(C)c2C)cn1 | 10.1 |
| COc1ccc(CNC(=O)[C@H](C)NC(=O)C2CCN(C(=O)[C@@H](N)Cc3ccccc3)CC2)cc1 | 4.82 |
| COc1ccccc1N1CCN(CC(=O)c2c(N)n(C)c(=O)n(C)c2=O)CC1 | 4.93 |
| CSCC[C@H](NC(=O)OC(C)(C)C)C(=O)N1CCC(C(=O)N[C@@H](Cc2c[nH]c3ccccc23)C(=O)O)CC1 | 24.6 |

| SMILES | hERG current change (%, negative = inhibition) at 1uM [%] |
| --- | --- |
| Cc1nn(CC(=O)Nc2ccccn2)c(=O)c2ccccc12 | 11.1 |
| N#Cc1c(/N=C\c2ccc(O)c([N+](=O)[O-])c2)sc2c1CCCC2 | 13.1 |
| O=C1c2cccnc2C(O)N1Cc1ccco1 (stereo not drawn) | 5.47 |
| CCN(CC)C(=O)c1nc[nH]c1C(=O)N(CC)CC | 13.1 |
| O=C(Nc1ccccc1-c1ccccc1)NC1CC2CCCC(C1)N2CCc1ccccc1 (stereo not drawn) | 2.01 |
| COC(=O)c1cn(NC(=O)C2CCC(C(C)(C)C)CC2)c(=O)c2ccccc12 (stereo not drawn) | 13.5 |
| CC(=O)Nc1cccc(C(=O)/C=C/c2ccc(Br)cc2)c1 | 3.85 |
| Cc1nnc(SCC(=O)Nc2cc(C(N)=O)cc(C(N)=O)c2)n1-c1ccccc1 | 17.6 |
| CCNC(=S)NNC(=O)c1ccccn1 | 7.29 |
| C=CCn1nc(-c2ccccc2)c2c(C)onc2c1=O | 0.704 |
| NC(=O)c1ccc(NC(=O)COC(=O)C(Cc2ccccc2)NC(=O)c2ccccc2)cc1 (stereo not drawn) | 6.79 |
| COc1ccc(-n2c(O)c(C=NCc3ccc4c(c3)OCO4)c(=O)[nH]c2=O)cc1 | 11.1 |
| COc1ccc([N+](=O)[O-])cc1/C=N/NC(=O)c1nonc1N | 12.4 |
| CCN(CC)CCCN1C(=O)c2oc3ccccc3c(=O)c2C1c1cc(OC)ccc1OC (stereo not drawn) | -3.13 |
| CCOC(=O)N/N=C/c1cccnc1 | 5 |
| Cc1cccc(C)c1NC(=S)N(CCc1ccncc1)C(C)C | 14.1 |
| CCOc1ccc(OCc2ccc(C(=O)Nc3cccc(C)n3)o2)cc1 | 5.63 |
| CN(C)CCN(Cc1ccccc1)S(=O)(=O)c1csc(C(N)=O)c1 | 17.6 |
| N#CC(C#N)=C(N)CSc1cccc[n+]1[O-] | 16.4 |
| CCOC(=O)c1c(C)[nH]c(N=Nc2ccc(C)cc2)c1C | 11.9 |
| Cc1ccc(NC(=O)Cn2cnc3sc(C(=O)NCc4ccco4)c(C)c3c2=O)cc1Cl | -1.33 |
